In the supplement of paper PMC11417369:
± gives the standard deviation of the averaged measurements. The list shows a part of the results.

The sequences below were run on PfAP2-I AP2 domain 3 (GST-tagged) (assay: gcPBM binding intensity (ln(normalized median fluorescence intensity)); higher = stronger DNA binding).
Method in brief: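 Probes on an Agilent 4 × 180k array were primer-extended, double-stranded and 36 bp long, taken from intergenic genomic regions, with negative controls added. GST-tagged P. falciparum DNA-binding domains from E. coli, about 25 μg on average, were applied to the array for 1 h in 1× PBS containing 1% milk, 0.2 mg/ml BSA, 0.5% salmon testes DNA and 0.03% Triton X-100. Binding intensity, obtained after Alexa488 anti-GST antibody detection and a 488 nm scan, is the highest Masliner-normalised natural-log median intensity across replicate spots of either probe orientation.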

Sequence | gcPBM binding intensity (ln)
TTAAAAATCATTTAAGAACACACAAATATTTCCATT [CACACA_site8418] | 7.57 ± 0.44
TTTTTTTTTTCTTTTTTTTATTATATTAACGGAATT [GTGCAC_negctrl_site104] | 7.97 ± 0.43
AATAAACAAATAAATAAACACACAATATATGTATAT [CACACA_site9268] | 7.57 ± 0.61
AAAAAGAAATACAAATAATATATATATATATATATT [TGCATGCA_negctrl_site458] | 7.71 ± 0.38
CATAAAAATTGAAGCACACACACAAAAGAAATACAA [CACACA_site1112] | 8.27 ± 0.54
ATCATTTCTATATAAGCACACACGTGGAATTTTTTT [CACACA_site2786] | 9.27 ± 0.47
TTTCTTTAACAAGTTAAACACACATACATATATACA [CACACA_site8810] | 7.85 ± 0.49
AAAATAAATATATTATCCACGTTGTATATATATATA [XGTACX_negctrl_site136] | 9.46 ± 0.38
CACATACAGATATATACACACAAATATAAATACACA [CACACA_site6512] | 7.86 ± 0.38
AATAAATATAAAAATGCACACACACTAATAAAAAAA [CACACA_site8201] | 8.67 ± 0.52
TTACTTATATGCATAGTGCAAATTTGGTAAATATCT | 10.3 ± 0.028
CAATTTATTATATATGTGCACATATAATTTTACAAA | 9.59 ± 0.24
TAATTATTTTTATTGTTGCACTAGTAAAATTTTAAG [GTGCAC_site9946] | 9.78 ± 0.22
TACATTTTAATATAAGCATGCCTTTAGTTTTTTTCT [TGCATGCA_site829] | 7.6 ± 1
AATACAAATATATATGCACACACATATACATACATA [CACACA_site8677] | 9.22 ± 0.057
TATTTATTGTGATACTTATATTATTTCATGATTAAT [CACACA_negctrl_site738] | 7.5 ± 0.59
ACTTTATTATATATTTGTACATATATTTTTAATTTC [XGTACX_site4144] | 8.06 ± 0.62
GTATATATGTATGTATGTACTTATAAAGTTGCATAT [XGTACX_site5616] | 7.99 ± 0.23
TCTACATCTGTATATAAACACACAACAAAAATGCTT [CACACA_site9271] | 7.79 ± 0.54

Sequence | gcPBM binding intensity (ln)
AATGTGTAGACACGCACACACAAAAAAATATTTATA [CACACA_site7384] | 7.78 ± 0.5
TTCTTACACAAAAAAATGAAATCAATCAAAAAAAAA [CACACA_negctrl_site869] | 7.67 ± 0.55
TATATATTTCAATAATGTACATATAATATATATATT [XGTACX_site4124] | 7.69 ± 0.42
GAAAATATATTTAAGATGCACTTTAAAAATGTACTT | 8.99 ± 0.54
AAGTAATCATCATAAAGTACTAAATTATATTGTCAA [XGTACX_site5841] | 7.5 ± 0.54
AAATTATATATAAAATGTACATATGTAGGTAATTTT [XGTACX_site5047] | 8.27 ± 0.39
ACATTCTGATGGTGATTATTAATTATTACAAAAATT [CACACA_negctrl_site283] | 7.5 ± 0.44
AAATATTACTCCTCAAGTACACATAAAAAAAAAATA [XGTACX_site2085] | 7.93 ± 0.25
TTTTATTTTCGATGATGTACATTAAATTATACAGTA [XGTACX_site6053] | 7.64 ± 0.45
TATTTTTTTTGATATTGTACTTTTTTATTATTTTTT [XGTACX_site566] | 7.72 ± 0.47
TAAAAATTTAAGAAAACATGCATCTAACATATATAT [TGCATGCA_site342] | 7.53 ± 0.71
AATATACAAAATAAATAAAATATATATATATATATA [CACACA_negctrl_site216] | 9.46 ± 0.42
AAGTAAAATAAGTATACACACATAAATATGTAAATA [CACACA_site6467] | 7.51 ± 0.48
TTGTTTTCACCAAATACACACAAGCATACACCCCAT [CACACA_site2717] | 8.7 ± 0.33
ATACATAAATTTATACGTACATATATAGATACATAA [XGTACX_site675] | 8.2 ± 0.4
TTACATGCTAAAATTTGTACATATATGATAAATATT [XGTACX_site2648] | 7.75 ± 0.43
TTATAATATAAAAAATGTACATTAAAAAAAAAGATT [XGTACX_site8950] | 8.11 ± 0.65
AAGTATCAAAAATAAAGTACATATTTTGTAGGCAGG [XGTACX_site1463] | 8.3 ± 0.52
CAAAAAATATATTTTTGTACTTATGTTTTTATTTTG [XGTACX_site5230] | 7.94 ± 0.099

Sequence | gcPBM binding intensity (ln)
TAGTATAATATGAACACACACACACCCACAAAAAAA [CACACA_site2009] | 8.46 ± 0.14
TGGATATATGTAAAAATTGCAAGAAAGATAAAAGGA [CACACA_negctrl_site64] | 8.59 ± 0.69
TCTATGAATTAATATGCATGTAACGTATTTATACTT [TGCATGCA_site669] | 7.67 ± 0.83
ATTATGATATATATATGTACATATATATAATATAAT [XGTACX_site259] | 7.78 ± 0.43
TTTTTTTTTTTCCTTACACACATATTTCATTTTATA [CACACA_site747] | 8.25 ± 0.71
TTTTTATTTTTTAGTAGTACACACTTTTTGAACCTT [XGTACX_site1091] | 8.355 ± 0.064
TTTTATATATATTATACACACAAGGAAAAAAAAAAA [CACACA_site3677] | 8.19 ± 0.64
AAAAAAAAAAAAAGTGCACACTTTTAATATAAATAT [CACACA_site3314] | 10 ± 0.35
TATAAAAGGAAACACACACACATATATATATATATA [CACACA_site939] | 9.47 ± 0.38
AAATGGGAAATTTCATGTACTCATTTACCCTTATTA [XGTACX_site4740] | 7.45 ± 0.6
ATCTGACAAAAGTGTACACATATATATATATATATA [CACACA_site4814] | 9.52 ± 0.35
CACATAATGAAAAATACACACATGTATATTTATAAA [CACACA_site2736] | 7.57 ± 0.49
TTGAAGTATAATAAAGTGCAAAATTATAATGATCTT [GTGCAC_site9639] | 10.135 ± 0.007
TGTTGGTATGTGAATGCATGCATATAAGTCTATCTG [TGCATGCA_site780] | 8.04 ± 0.73
AAGGGAAAAAAAAAAGCACACATACGTAAATATATA [CACACA_site7960] | 8.04 ± 0.26
AAAAGATAAAATTATGCACACATACGAATAATTTTA [CACACA_site8497] | 9.47
TATTTCACACAGTATATATATATATATATATATATA [TGCATGCA_negctrl_site118] | 9.34 ± 0.99
AATATATTAAATATTACACACATACATTTAGTGGAA [CACACA_site8609] | 7.58 ± 0.5
TACTAAGAAAAGAACTGTACATAGAATATACCCAAG [XGTACX_site4757] | 7.7 ± 0.6
